Reference: publication PMC7819943, “Rice protein-binding microarrays: a tool to detect cis-acting elements near promoter regions in rice”
This is one part of the list.

What follows are sequences tested against T1, OsWOX13 (Oryza sativa, UniProt Q5QMM3 1-267) (assay: protein-binding microarray (RPBM); PBS, 2% BSA, 51.3 ng/ul salmon testes DNA, 50 uM zinc acetate, 200 nM TF, 25 C, 1 h; high values mean tight binding). Settings: protein: recombinant; tags: N-terminal polyhistidine and DsRed monomer fusion (pET32a); label: CyDye5-dUTP incorporated in the synthesized complementary strand; 3' TTTTT single-stranded linker to array surface; dsDNA, one strand shown.
T1 sequence: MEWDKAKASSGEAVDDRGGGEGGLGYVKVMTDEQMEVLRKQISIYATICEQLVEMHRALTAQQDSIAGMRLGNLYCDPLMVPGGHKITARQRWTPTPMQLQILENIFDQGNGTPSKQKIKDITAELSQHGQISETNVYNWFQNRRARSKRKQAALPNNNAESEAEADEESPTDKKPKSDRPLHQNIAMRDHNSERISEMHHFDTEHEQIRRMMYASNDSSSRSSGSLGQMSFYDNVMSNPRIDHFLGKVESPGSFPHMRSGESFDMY
Summary of the method: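 Ni–NTA purification followed expression in E. coli BL21-CodonPlus of transcription factors fused N-terminally to a polyhistidine tag and DsRed. At 200 nM in PBS with 2% BSA, salmon testes DNA and 50 µM zinc acetate, the protein was incubated for 1 h at 25 °C with a custom Agilent array that had been primer-extended with Cy5-dUTP and blocked with 2% BSA. After washing, the array was read on an Axon 4000B scanner. The binding signal is per-feature fluorescence intensity in arbitrary units.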

Sequence | binding signal
GCTTTGGGGCTAATTTGATTTCAAGACAATTTGGTATTAGCGGAGTCACCTAGTGCAG | 4020 fluorescence intensity (a.u.)
AAATGATTAAAGGAAAATAACTTGTACGGTCAGGGAGGCACGGAGTCACCTAGTGCAG | 11400 fluorescence intensity (a.u.)
TCTGTATGGGTGATTTGCCTAAACAAGACAAGCAAAAGTGCGGAGTCACCTAGTGCAG | 4480 fluorescence intensity (a.u.)
AAAATTTAAATTTATAACTTTAATTTTAGAGTTTATGTTTCGGAGTCACCTAGTGCAG | 25400 fluorescence intensity (a.u.)
GATGATTACACTGTTAATCCGCTTTTAATCTCTGCCATTGCGGAGTCACCTAGTGCAG | 34200 fluorescence intensity (a.u.)
GAAAATTATTAAATAGTAATCATAGGACGAAAACTTTTGTCGGAGTCACCTAGTGCAG | 16300 fluorescence intensity (a.u.)
AGCACTAATTTTCATGAAGAGCTGTGACTATAGTTATACACGGAGTCACCTAGTGCAG | 5360 fluorescence intensity (a.u.)
GGCGCACTGATTGTTCATGATTGATGCAGTGATCCGGGCACGGAGTCACCTAGTGCAG | 59600 fluorescence intensity (a.u.)
AACAAGTGTTAACACAGCCTAATTAGCCCCACAAAGGTTCCGGAGTCACCTAGTGCAG | 7030 fluorescence intensity (a.u.)
AGTAGATTGCAAATCGATTTTCGTTTTGGAGACATCATGGCGGAGTCACCTAGTGCAG | 19600 fluorescence intensity (a.u.)
TGCCGTGGGATGGGGTTGCGGGAGGAGGAGGGTGCTACTACGGAGTCACCTAGTGCAG | 4050 fluorescence intensity (a.u.)
AACAATATTGATTTCTTGAACACCAGGTAGATATTATTGACGGAGTCACCTAGTGCAG | 7940 fluorescence intensity (a.u.)
CATAATTGCTTACCCCATGAAGCTGCTGCACATCTATTATCGGAGTCACCTAGTGCAG | 29900 fluorescence intensity (a.u.)
GAAAATGGATTTAAATCCGGCCACTACATTTGAACCGGAACGGAGTCACCTAGTGCAG | 3340 fluorescence intensity (a.u.)
ATGCATGTTAATTAGTCTGTCACTGATCACTTCATCCCATCGGAGTCACCTAGTGCAG | 23300 fluorescence intensity (a.u.)
AACTAAACACACATTGACTGTAGCTTCAGTTGAAGAACCGCGGAGTCACCTAGTGCAG | 5680 fluorescence intensity (a.u.)
TAAACAATATATACCAATTTAATCAACGGTCGAGAAATACCGGAGTCACCTAGTGCAG | 3150 fluorescence intensity (a.u.)
ATCACCTCTGCATTGATTGGCTCGAGGTATTAAGGGTTATCGGAGTCACCTAGTGCAG | 16300 fluorescence intensity (a.u.)
TCTAATAGAATGATTAGTTGAATATAAACTTATCTTTTAACGGAGTCACCTAGTGCAG | 8710 fluorescence intensity (a.u.)
TGGGAACAGACATTAATTATGCATAACATGTTTATTGATACGGAGTCACCTAGTGCAG | 12600 fluorescence intensity (a.u.)
TCTTTAAAATTTTATAACTGGTTTATAGGTTGCTATTGTACGGAGTCACCTAGTGCAG | 5270 fluorescence intensity (a.u.)

Sequence | binding signal
TGATCTGTTACATGTAAATTGTAGTGGACTGATTTAGGCCCGGAGTCACCTAGTGCAG | 5900 fluorescence intensity (a.u.)
ATCACGTCATCATTAGTGCTAATCACATGGTTAGCGACGGCGGAGTCACCTAGTGCAG | 13900 fluorescence intensity (a.u.)
GCGTCTAATCACCACGATTAAGCTCGTCGTAATTACCATCCGGAGTCACCTAGTGCAG | 13700 fluorescence intensity (a.u.)
TAGCTTGATTAGCTTAGCTTAAGTAGACAAGCCACTTTAGCGGAGTCACCTAGTGCAG | 31300 fluorescence intensity (a.u.)
TCCTCAAGATGACTGTGAATTATGGTTTCGAGTGTGTGTGCGGAGTCACCTAGTGCAG | 4060 fluorescence intensity (a.u.)
TCTAGACTAATTAATAAGCTTTATAGTAGTAAGAAGCATCCGGAGTCACCTAGTGCAG | 20500 fluorescence intensity (a.u.)
TTATTATGAAAATTATTGATTGAGCTGTCATAATATAGGACGGAGTCACCTAGTGCAG | 17700 fluorescence intensity (a.u.)
GTGATTTTATGAGTTATAACTTATAAATGGATATGAGACTCGGAGTCACCTAGTGCAG | 6130 fluorescence intensity (a.u.)
AAAGATTGCCGAGTTTAATTGCAATCAATTACGGGAAGATCGGAGTCACCTAGTGCAG | 52900 fluorescence intensity (a.u.)
AAACAATTATTCAATATTCATCATTTGGCTCAATCTAGTCCGGAGTCACCTAGTGCAG | 5020 fluorescence intensity (a.u.)
ACCAATTCAAATTTCGATTAAAATCAATGAAACATAAACCCGGAGTCACCTAGTGCAG | 3610 fluorescence intensity (a.u.)
ACTAAATTACCGTGTAGCATTTGAGATTTTAACATCCATTCGGAGTCACCTAGTGCAG | 15000 fluorescence intensity (a.u.)
CCCCTATTAAATTATGTGCTGGCACCATTCCCAGCAAAGGCGGAGTCACCTAGTGCAG | 4570 fluorescence intensity (a.u.)
CCGCATGATTAATTAAATAATAGTGAAATGAGCGTGGCTCCGGAGTCACCTAGTGCAG | 22300 fluorescence intensity (a.u.)
TACTAATTTCTCTCTCTCTCCTCTCATCAGGGTCAGTTTCCGGAGTCACCTAGTGCAG | 5390 fluorescence intensity (a.u.)
AATTTAAATATTAAAATTTAATTTTGAAGTTGATTTTAGACGGAGTCACCTAGTGCAG | 3340 fluorescence intensity (a.u.)
TTGTGGCTTGATTGATCCGTCCTCGACCCATAGGGGTGGTCGGAGTCACCTAGTGCAG | 39100 fluorescence intensity (a.u.)
ATGATTGAATGAATGAAACCCTAGTTTGTTTTGATTTGTACGGAGTCACCTAGTGCAG | 54400 fluorescence intensity (a.u.)
TTTATTATTGATGAGCAAATAGGAATCAGATGCAAATACTCGGAGTCACCTAGTGCAG | 8910 fluorescence intensity (a.u.)
AATGTTTGTGATTGGCTGAGAGGAGAAGATAGGTAGAAAACGGAGTCACCTAGTGCAG | 17800 fluorescence intensity (a.u.)
GTATGGATCACCTGATTAATTGGGCCGTCGTTCCATTCCCCGGAGTCACCTAGTGCAG | 9310 fluorescence intensity (a.u.)
